Laboratory results reported in the supplement of paper PMC4967469.
The IC50 comes from the fitted curve, where viability falls to half of the control; a limit (>, <) means that the fit lies beyond the doses tested. For AUC the same curve is integrated over the 256-fold range of doses and scaled to a fraction: 1 means no effect, lower means more sensitive. For some assays here: An inferred top dose was calculated from the reported fits.

Tests used:
Test in all cases: Viability of human cancer cell lines after 72 h of drug (GDSC screen)
Dabrafenib = compound: CC(C)(C)c1nc(-c2cccc(NS(=O)(=O)c3c(F)cccc3F)c2F)c(-c2ccnc(N)n2)s1 [Dabrafenib]; conditions: top dose 10 µM
Procedure: (§1)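 Human cancer cell lines in 384-well plates, medium with 10% serum, drug for 72 h over a 256-fold dose range (nine 2-fold or five 4-fold steps up to the top dose). Adherent lines were fixed and stained with the nucleic acid dye Syto60, suspension lines read with resazurin; signal relative to control wells, capped at 0 and 100%. One two-parameter sigmoid per drug and line, fitted in a mixed model over all curves with the slope shared within a line.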

SN-38 = compound: CCc1c2c(nc3ccc(O)cc13)-c1cc3c(c(=O)n1C2)COC(=O)[C@]3(O)CC [SN-38]; conditions: top dose 0.05 µM; top dose inferred
Procedure: as §1

Methotrexate = compound: CN(Cc1cnc2nc(N)nc(N)c2n1)c1ccc(C(=O)N[C@@H](CCC(=O)O)C(=O)O)cc1 [Methotrexate]; conditions: top dose 0.2 µM
Procedure: as §1

Axitinib = compound: CNC(=O)c1ccccc1Sc1ccc2c(/C=C/c3ccccn3)n[nH]c2c1 [Axitinib]; conditions: top dose 2 µM
Procedure: as §1

Vorinostat = compound: O=C(CCCCCCC(=O)Nc1ccccc1)NO [Vorinostat]; conditions: top dose 10 µM
Procedure: as §1

Row | Cell Line | AUC (Dabrafenib) | IC50 (Dabrafenib) | AUC (SN-38) | IC50 (SN-38) | AUC (Methotrexate) | IC50 (Methotrexate) | AUC (Axitinib) | IC50 (Axitinib) | AUC (Vorinostat) | IC50 (Vorinostat)
1 | NCI-H28 (mesothelioma, adherent) | 0.84 | > 10000 nM | 0.807 | 36.2 nM | 0.881 | > 200 nM | 0.914 | > 2000 nM | 0.812 | 7610 nM
2 | NCI-H146 (small cell lung carcinoma, suspension) | 0.995 | > 10000 nM | 0.964 | > 50 nM | 0.93 | > 200 nM | 0.986 | > 2000 nM | 0.494 | 606 nM
3 | NCI-H211 (small cell lung carcinoma, adherent) | 0.982 | > 10000 nM | 0.77 | 18.4 nM | 0.71 | 48.1 nM | 0.918 | > 2000 nM | 0.584 | 1050 nM
4 | NCI-H345 (small cell lung carcinoma, suspension) | 0.989 | > 10000 nM | 0.951 | > 50 nM | 0.989 | > 200 nM | 0.99 | > 2000 nM | 0.703 | 2400 nM
5 | NCI-H508 (large intestine, semi-adherent) | 0.908 | > 10000 nM | 0.886 | > 50 nM | 0.899 | > 200 nM | 0.947 | > 2000 nM | 0.571 | 1120 nM
6 | NCI-H520 (lung squamous cell carcinoma, adherent) | 0.986 | > 10000 nM | 0.896 | > 50 nM | 0.94 | > 200 nM | 0.96 | > 2000 nM | 0.902 | > 10000 nM
7 | NCI-H524 (small cell lung carcinoma, suspension) | 0.982 | > 10000 nM | 0.859 | 34.6 nM | 0.696 | 41.5 nM | 0.921 | > 2000 nM | 0.576 | 983 nM
8 | NCI-H596 (lung adenocarcinoma, adherent) | 0.978 | > 10000 nM | 0.973 | > 50 nM | 0.918 | > 200 nM | 0.973 | > 2000 nM | 0.911 | > 10000 nM
9 | NCI-H630 (large intestine, adherent) | 0.953 | > 10000 nM | 0.918 | > 50 nM | 0.977 | > 200 nM | 0.98 | > 2000 nM | 0.812 | 5830 nM
10 | NCI-H647 (non-small cell lung carcinoma, adherent) | 0.738 | 3110 nM | 0.578 | 5.15 nM | 0.983 | > 200 nM | 0.959 | > 2000 nM | 0.871 | > 10000 nM
11 | NCI-H650 (lung adenocarcinoma, adherent) | 0.888 | > 10000 nM | 0.764 | 20 nM | 0.91 | > 200 nM | 0.986 | > 2000 nM | 0.75 | 3560 nM
12 | NCI-H661 (large cell lung carcinoma, adherent) | 0.937 | > 10000 nM | 0.724 | 15.7 nM | 0.98 | > 200 nM | 0.951 | > 2000 nM | 0.664 | 1980 nM
13 | NCI-H720 (lung carcinoid, suspension) | 0.987 | > 10000 nM | 0.991 | > 50 nM | 0.984 | > 200 nM | 0.919 | > 2000 nM | 0.698 | 2130 nM
14 | NCI-H727 (lung carcinoid, adherent) | 0.882 | > 10000 nM | 0.899 | > 50 nM | 0.923 | > 200 nM | 0.975 | > 2000 nM | 0.903 | > 10000 nM
15 | NCI-H747 (large intestine, adherent) | 0.921 | > 10000 nM | 0.922 | > 50 nM | 0.981 | > 200 nM | 0.96 | > 2000 nM | 0.865 | > 10000 nM
16 | NCI-H810 (large cell lung carcinoma, adherent) | 0.987 | > 10000 nM | 0.667 | 8.91 nM | 0.985 | > 200 nM | 0.961 | > 2000 nM | 0.741 | 2950 nM
17 | NCI-H835 (lung carcinoid, suspension) | 0.99 | > 10000 nM | 0.974 | > 50 nM | 0.87 | 170 nM | 0.964 | > 2000 nM | 0.642 | 1510 nM
18 | NCI-H841 (small cell lung carcinoma, adherent) | 0.953 | > 10000 nM | 0.82 | 28.7 nM | 0.98 | > 200 nM | 0.876 | > 2000 nM | 0.682 | 2030 nM
19 | NCI-H1092 (small cell lung carcinoma, suspension) | 0.987 | > 10000 nM | 0.91 | > 50 nM | 0.986 | > 200 nM | 0.99 | > 2000 nM | 0.485 | 568 nM
20 | NCI-H1105 (small cell lung carcinoma, suspension) | 0.993 | > 10000 nM | 0.162 | 0.382 nM | 0.953 | > 200 nM | 0.906 | 1870 nM | 0.519 | 698 nM
21 | NCI-H1155 (large cell lung carcinoma, suspension) | 0.992 | > 10000 nM | 0.466 | 2.57 nM | 0.893 | 164 nM | 0.923 | > 2000 nM | 0.71 | 2150 nM
22 | NCI-H1304 (small cell lung carcinoma, suspension) | 0.986 | > 10000 nM | 0.939 | > 50 nM | 0.98 | > 200 nM | 0.988 | > 2000 nM | 0.883 | > 10000 nM
23 | NCI-H1341 (small cell lung carcinoma, suspension) | 0.991 | > 10000 nM | 0.519 | 3.48 nM | 0.977 | > 200 nM | 0.937 | > 2000 nM | 0.6 | 1120 nM
